# According to the supplement of paper PMC8728848:
# The other results are listed elsewhere or left out.
# B1: Cohesin-marm-DC-ASGPR-CRD (protein)
# chain: LDITSHHHHHHDDLDAVRIKVDTVNAKPGDTVRIPVRFSGIPSKGIANCDFVYSYDPNVLEIIEIEPGDIIVDPNPDKSFDTAVYPDRKIIVFLFAEDSGTGAYAITKDGVFATIVAKVKEGAPNGLSVIKFVEVGGFANNDLVEQKTQFFDGGVNVGDTTEPATPTTPVTTPTTTDDLDAASCPINWVEHQGSCYWFSRSGKTWPEAERYCQLENTHLVVINSREEQNFVQAHLGSAYTWMGLSDPEGVWKWVDGTDYSSGFQNWKPGQPDDWQGHGLGGGEDCAHFHPDGRWNDDVCQRSYHWVCEAGLTQASQDSH
# Tests used:
# Assay in all cases: glycan array binding signal (z-score within array); higher = stronger binding
# Settings in all cases: glycan notation: IUPAC condensed, linker removed
# [1] = target: Fuc(a1-2)[Gal(a1-3)]Gal(b1-4)GlcNAc(b1-2)Man(a1-3)[Fuc(a1-2)[Gal(a1-3)]Gal(b1-4)GlcNAc(b1-2)Man(a1-6)]Man(b1-4)GlcNAc(b1-4)[Fuc(a1-6)]GlcNAc
# Procedure, shortened: (§1)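 Arrays were curated from the Consortium for Functional Glycomics database, 3228 in total, and kept only where the protein sequence was available. Binding is expressed as a within-array Z-score. This score was averaged across arrays of the same protein sequence at different concentrations or buffers and across linkers, and negative values can be read as non-binding.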
# [2] = target: Fuc(a1-2)[Gal(a1-3)]Gal(b1-4)GlcNAc(b1-3)GalNAc
# Procedure, shortened: as §1
# [3] = target: Fuc(a1-2)[Gal(a1-3)]Gal(b1-4)GlcNAc(b1-3)[Fuc(a1-2)[Gal(a1-3)]Gal(b1-4)GlcNAc(b1-6)]GalNAc
# Procedure, shortened: as §1
# [4] = target: Fuc(a1-2)[Gal(a1-3)]Gal(b1-4)GlcNAc(b1-6)GalNAc
# Procedure, shortened: as §1
# [5] = target: Fuc(a1-2)[Gal(a1-3)]Gal(b1-4)[Fuc(a1-3)]Glc
# Procedure, shortened: as §1
# [6] = target: Fuc(a1-2)[Gal(a1-3)]Gal(b1-4)[Fuc(a1-3)]GlcNAc
# Procedure, shortened: as §1
# [7] = target: Fuc(a1-2)[Gal(a1-3)]Gal(b1-4)[Fuc(a1-3)]GlcNAc(b1-3)GalNAc
# Procedure, shortened: as §1
# [8] = target: Fuc(a1-2)[Gal(a1-4)]Gal(b1-4)GlcNAc
# Procedure, shortened: as §1
# [9] = target: Fuc(a1-2)[GalNAc(a1-3)]Gal
# Procedure, shortened: as §1
# [10] = target: Fuc(a1-2)[GalNAc(a1-3)]Gal(b1-3)GalNAc(a1-3)[Fuc(a1-2)]Gal(b1-4)GlcNAc
# Procedure, shortened: as §1
# [11] = target: Fuc(a1-2)[GalNAc(a1-3)]Gal(b1-3)GalNAc(b1-3)Gal(a1-4)Gal(b1-4)Glc
# Procedure, shortened: as §1
# [12] = target: Fuc(a1-2)[GalNAc(a1-3)]Gal(b1-3)GlcNAc
# Procedure, shortened: as §1
# [13] = target: Fuc(a1-2)[GalNAc(a1-3)]Gal(b1-3)GlcNAc(b1-2)Man(a1-3)[Fuc(a1-2)[GalNAc(a1-3)]Gal(b1-3)GlcNAc(b1-2)Man(a1-6)]Man(b1-4)GlcNAc(b1-4)GlcNAc
# Procedure, shortened: as §1
# [14] = target: Fuc(a1-2)[GalNAc(a1-3)]Gal(b1-3)GlcNAc(b1-2)Man(a1-3)[Fuc(a1-2)[GalNAc(a1-3)]Gal(b1-3)GlcNAc(b1-2)Man(a1-6)]Man(b1-4)GlcNAc(b1-4)[Fuc(a1-6)]GlcNAc
# Procedure, shortened: as §1
# [15] = target: Fuc(a1-2)[GalNAc(a1-3)]Gal(b1-3)GlcNAc(b1-3)GalNAc
# Procedure, shortened: as §1
# [16] = target: Fuc(a1-2)[GalNAc(a1-3)]Gal(b1-3)GlcNAc(b1-6)GalNAc
# Procedure, shortened: as §1
# [17] = target: Fuc(a1-2)[GalNAc(a1-3)]Gal(b1-4)Glc
# Procedure, shortened: as §1
# [18] = target: Fuc(a1-2)[GalNAc(a1-3)]Gal(b1-4)GlcNAc
# Procedure, shortened: as §1
# [19] = target: Fuc(a1-2)[GalNAc(a1-3)]Gal(b1-4)GlcNAc(b1-2)Man
# Procedure, shortened: as §1
# [20] = target: Fuc(a1-2)[GalNAc(a1-3)]Gal(b1-4)GlcNAc(b1-2)Man(a1-3)[Fuc(a1-2)[GalNAc(a1-3)]Gal(b1-4)GlcNAc(b1-2)Man(a1-6)]Man(b1-4)GlcNAc(b1-4)GlcNAc
# Procedure, shortened: as §1
# [21] = target: Fuc(a1-2)[GalNAc(a1-3)]Gal(b1-4)GlcNAc(b1-2)Man(a1-3)[Fuc(a1-2)[GalNAc(a1-3)]Gal(b1-4)GlcNAc(b1-2)Man(a1-6)]Man(b1-4)GlcNAc(b1-4)[Fuc(a1-6)]GlcNAc
# Procedure, shortened: as §1
# [22] = target: Fuc(a1-2)[GalNAc(a1-3)]Gal(b1-4)GlcNAc(b1-3)Gal(b1-4)GlcNAc
# Procedure, shortened: as §1
# [23] = target: Fuc(a1-2)[GalNAc(a1-3)]Gal(b1-4)GlcNAc(b1-3)Gal(b1-4)GlcNAc(b1-3)Gal(b1-4)GlcNAc
# Procedure, shortened: as §1
# [24] = target: Fuc(a1-2)[GalNAc(a1-3)]Gal(b1-4)GlcNAc(b1-3)GalNAc
# Procedure, shortened: as §1
# [25] = target: Fuc(a1-2)[GalNAc(a1-3)]Gal(b1-4)GlcNAc(b1-3)[Fuc(a1-2)[GalNAc(a1-3)]Gal(b1-4)GlcNAc(b1-6)]GalNAc
# Procedure, shortened: as §1
# [26] = target: Fuc(a1-2)[GalNAc(a1-3)]Gal(b1-4)GlcNAc(b1-6)GalNAc
# Procedure, shortened: as §1
# [27] = target: Fuc(a1-2)[GalNAc(a1-3)]Gal(b1-4)[Fuc(a1-3)]GlcNAc
# Procedure, shortened: as §1
# [28] = target: Fuc(a1-2)[GalNAc(a1-3)]Gal(b1-4)[Fuc(a1-3)]GlcNAc(b1-3)GalNAc
# Procedure, shortened: as §1
# [29] = target: Fuc(a1-2)[GalNAc(a1-4)]Gal(b1-4)GlcNAc
# Procedure, shortened: as §1
# [30] = target: Fuc(a1-2)[GalNAc(b1-3)]Gal
# Procedure, shortened: as §1
# Fuc(a1-3)GlcNAc = target: Fuc(a1-3)GlcNAc
# Procedure, shortened: as §1
# [31] = target: Fuc(a1-3)[Gal(b1-4)]Glc6S
# Procedure, shortened: as §1
# [32] = target: Fuc(a1-3)[Gal(b1-4)]GlcNAc
# Procedure, shortened: as §1
# [33] = target: Fuc(a1-3)[Gal(b1-4)]GlcNAc(b1-2)Man
# Procedure, shortened: as §1
# [34] = target: Fuc(a1-3)[Gal(b1-4)]GlcNAc(b1-2)Man(a1-3)[Fuc(a1-3)[Gal(b1-4)]GlcNAc(b1-2)Man(a1-6)]Man(b1-4)GlcNAc(b1-4)GlcNAc
# Procedure, shortened: as §1
# [35] = target: Fuc(a1-3)[Gal(b1-4)]GlcNAc(b1-2)Man(a1-3)[Fuc(a1-3)[Gal(b1-4)]GlcNAc(b1-2)Man(a1-6)]Man(b1-4)GlcNAc(b1-4)[Fuc(a1-6)]GlcNAc
# Procedure, shortened: as §1
# [36] = target: Fuc(a1-3)[Gal(b1-4)]GlcNAc(b1-3)Gal(b1-3)[Fuc(a1-4)]GlcNAc
# Procedure, shortened: as §1
binder,measurement,setting,value
B1,glycan array binding signal (z-score),[1],-0.307
same,glycan array binding signal (z-score),[2],-0.441
same,glycan array binding signal (z-score),[3],-0.357
same,glycan array binding signal (z-score),[4],-0.449
same,glycan array binding signal (z-score),[5],-0.44
same,glycan array binding signal (z-score),[6],-0.428
same,glycan array binding signal (z-score),[7],-0.432
same,glycan array binding signal (z-score),[8],-0.423
same,glycan array binding signal (z-score),[9],2.69
same,glycan array binding signal (z-score),[10],3.71
same,glycan array binding signal (z-score),[11],2.5
same,glycan array binding signal (z-score),[12],2.96
same,glycan array binding signal (z-score),[13],2.42
same,glycan array binding signal (z-score),[14],0.785
same,glycan array binding signal (z-score),[15],1.43
same,glycan array binding signal (z-score),[16],2.04
same,glycan array binding signal (z-score),[17],1.96
same,glycan array binding signal (z-score),[18],2.22
same,glycan array binding signal (z-score),[19],2.33
same,glycan array binding signal (z-score),[20],2.46
same,glycan array binding signal (z-score),[21],1.32
same,glycan array binding signal (z-score),[22],2.91
same,glycan array binding signal (z-score),[23],2.99
same,glycan array binding signal (z-score),[24],0.983
same,glycan array binding signal (z-score),[25],2.49
same,glycan array binding signal (z-score),[26],2.6
same,glycan array binding signal (z-score),[27],3.78
same,glycan array binding signal (z-score),[28],-0.306
same,glycan array binding signal (z-score),[29],2.61
same,glycan array binding signal (z-score),[30],2.51
same,glycan array binding signal (z-score),Fuc(a1-3)GlcNAc,-0.345
same,glycan array binding signal (z-score),[31],-0.407
same,glycan array binding signal (z-score),[32],-0.396
same,glycan array binding signal (z-score),[33],-0.448
same,glycan array binding signal (z-score),[34],-0.413
same,glycan array binding signal (z-score),[35],-0.357
same,glycan array binding signal (z-score),[36],-0.447
